From PubChem BioAssay AID463173 (ICCB-Longwood Screening Facility, Harvard Medical School, 2010)
Among all 52,000 compounds or so, about 1,700 (3.3%) were called active. No stated cut-off is given here; in the data, active means survival mostly below about 52% (no sharp cut-off); inactive means mostly above about 56%. The list shows a part of the results.

tested on: Wild type; assay: S. aureus survival, RN4220 and DeltatarO strains – OD600, teichoic acid synthesis inhibitors, primary screen (AID 463173); conditions: S. aureus RN4220 wild type/DeltatarO growth, OD600, 18 h, active compounds read low, screened at 18.75 µg/mL (by protocol)

Compound	survival
O=S(=O)(Nc1cc(F)ccc1F)c1ccc2[nH]c3c(c2c1)CCCC3	inactive: 69%
CCc1cc2cc(C)cc(C)c2nc1Cl	inactive: 101%
CSc1nc2c(c(=O)[nH]1)C(c1cccc(F)c1F)CC(=O)N2 (stereo not given)	inactive: 115%
NS(=O)(=O)c1ccc(CCNc2nccn(-c3cccc(C(F)(F)F)c3)c2=O)cc1	inactive: 99%
COc1cccc(CNC(=O)c2ccc3c(c2)c(C)c(C)n3Cc2ccccc2)c1OC	inactive: 70%
CC(C)c1ccc(NC(=O)CS(=O)(=O)c2cccc3nsnc23)cc1	inactive: 74%
CCCCN(CCCC)CCNC(=O)Cn1nc(C)n2c(cc3sccc32)c1=O	inactive: 89%
COc1cccc(CNn2cnnc2)c1O	inactive: 111%
O=c1c2oc3ccccc3c2n(Cc2cccc(Cl)c2)c(=O)n1Cc1ccco1	inactive: 57%
Cc1ccc2occ(CC(=O)N(Cc3ccc(Cl)cc3)C3CCS(=O)(=O)C3)c2c1 (stereo not given)	inactive: 78%
COc1ccc(-c2cc(C(F)(F)F)nc(SCCC(=O)Nc3ccccc3F)n2)cc1	inactive: 65%
CCOC(=O)c1ccccc1NC(=O)CSc1ccc(-c2cccs2)nn1	inactive: 80%
O=C(Cc1ccccc1)NC1CC(=O)N(c2ccccc2)C1 (stereo not given)	inactive: 76%
CCC(=O)N1N=C2CCCCC2C1(O)C(F)(F)F (stereo not given)	inactive: 105%
COc1ccccc1N1CCN(C(=O)CN2C(=O)COc3ccc(S(=O)(=O)N4CCCCCC4)cc32)CC1	inactive: 89%
Cc1cccc(OCC(=O)Nc2nc3c(s2)CC(C(C)(C)C)CC3)c1C (stereo not given)	inactive: 108%
CCc1ccc(Nc2nn(-c3ccc(OC(F)(F)F)cc3)nc2C(C)=O)cc1	inactive: 88%
Cn1cc(S(=O)(=O)c2cccc(Cl)c2)c(=O)c2cc(F)c(N3CCN(c4ccc(F)cc4)CC3)cc21	inactive: 81%
Cc1ccc(-c2noc(CNS(=O)(=O)c3ccc(F)cc3)n2)cc1	inactive: 84%
Cc1nnc(N2CCN(C(=O)NC(C)C)CC2)c2nn(-c3ccccc3)c(C)c12	inactive: 75%
Cc1c(NC(=O)c2cc(-c3ccc(F)cc3)on2)c(=O)n(-c2ccccc2)n1C	inactive: 82%
CCN(CC)c1ccc(NC(=O)c2cnc3c(-c4ccccc4)c(C)nn3c2C)c(C)c1	inactive: 85%
COC(=O)C(C)Oc1ccc(N2C(=O)c3ccccc3C2=O)cc1 (stereo not given)	inactive: 107%

Compound	survival
COc1ccc(NC(=O)CN2C(=O)C3(SCC(=O)N3c3ccccc3)c3ccccc32)cc1Cl (stereo not given)	inactive: 113%
CC(C)NC(=O)CC1Sc2ccccc2NC1=O (stereo not given)	inactive: 97%
O=c1cc(-c2ccc(F)cc2)nc(SCc2nc(-c3cccc(C(F)(F)F)c3)no2)[nH]1	inactive: 80%
Cc1c(C(=O)N(Cc2cccc(F)c2)C2CCS(=O)(=O)C2)oc2cc(Br)ccc12 (stereo not given)	inactive: 57%
COc1ccc(CNC(=O)c2cccc(N3CCCS3(=O)=O)c2)cc1OC	inactive: 63%
CC(C)c1ccc(NC(=O)c2ccc(Cn3nc(N4CCN(c5ccccc5)CC4)ccc3=O)o2)cc1	inactive: 76%
O=C(Cn1ncn2nc(-c3cccs3)cc2c1=O)NCc1ccccc1Cl	inactive: 94%
CCn1c(=NC(=O)c2ccc(S(=O)(=O)N3CCCC3)cc2)sc2cc(Br)ccc21	inactive: 63%
CCOC(=O)c1c(C)c(-c2ccccc2)n(CC(=O)NC2CCCCCC2)c1C	inactive: 89%
CCc1ccc(N2C(=O)CSC23C(=O)N(Cc2cccc(OC)c2)c2ccccc23)cc1 (stereo not given)	inactive: 73%
C=CCc1ccc(OCc2ccc(C(=O)Nc3ccc(NC(C)=O)cc3)o2)c(OC)c1	inactive: 131%
Cc1nn(-c2ccccc2)c(Cl)c1C1N2CCCN1CC2 (stereo not given)	inactive: 98%
O=C(Nc1ccc(NC(=O)C2CCCCC2)nc1)C1CC1	inactive: 90%
Cc1cccc(Cn2cnc3c(oc4ccccc43)c2=O)c1	inactive: 85%
COc1cccc(NC(=O)Cn2cc(C(=O)c3ccc(F)cc3)c(=O)c3cc(OC)ccc32)c1	inactive: 85%
N#Cc1ccc(NC2=NS(=O)(=O)c3ccccc32)cc1	inactive: 92%
Cc1cc(C)cc(NC(=O)N2CCC(CN3CCc4ccccc4C3)CC2)c1	inactive: 81%
CCC(=O)N1CCc2cc(CNS(=O)(=O)c3ccc(Br)s3)ccc21	inactive: 60%
O=C(c1ccccc1Cl)N(Cc1ccco1)Cc1cc2cc3c(cc2nc1Cl)OCO3	inactive: 111%
CCN1CCN(C(c2ccccc2F)c2c(O)cc(C)n(CCOC)c2=O)CC1 (stereo not given)	inactive: 45%
CCc1c(C)sc2c1CCN(C(=O)Nc1cc(C)ccc1OC)C2c1ccc(F)cc1 (stereo not given)	inactive: 148%
COc1ccc(-c2c(C)nn3c(N4CCN(c5ccccc5F)CC4)cc(C)nc23)cc1OC	inactive: 80%
Cc1ccc(NS(=O)(=O)c2ccc3[nH]c4c(c3c2)CCCCCC4)cc1	inactive: 71%

Compound	survival
O=C(C1CC2c3ccccc3C1c1ccccc12)N1CCOCC1 (stereo not given)	inactive: 111%
CC1CCCN(S(=O)(=O)c2ccc(N3CCCCS3(=O)=O)cc2)C1 (stereo not given)	inactive: 91%
CCCN(CCC)CCNC(=O)c1sc2nc3n(c(=O)c2c1C)CCCCC3	inactive: 85%
Cc1ccc(C)c(N2C(=O)N(C)c3ccccc3S2(=O)=O)c1	inactive: 112%
COC(=O)c1c(NC(=O)c2nc(SCc3ccccc3C)ncc2Cl)sc2c1CCCC2	inactive: 123%
COc1ccc(-n2c(C)nc3cc(C(=O)NC4CCCCCC4)ccc32)cc1	inactive: 133%
CCc1cccc(NC(=O)C2CCC(CNS(=O)(=O)c3ccc4c(c3)CCCC(=O)N4)CC2)c1 (stereo not given)	inactive: 66%
CCOc1ccc(CCNC(=O)Cn2ncc3c([nH]c4ccccc43)c2=O)cc1OCC	inactive: 75%
Cc1cncn1CCc1nc2c3ccccc3nc(SCC(=O)Nc3ccc(F)cc3)n2n1	inactive: 70%
CCOc1ccccc1CNC(=O)c1cnc2sc(N3CCOCC3)nn2c1=O	inactive: 74%
CCN(C(=O)Cn1c(=O)nc(-c2ccccc2)c2cc(Cl)ccc21)c1cccc(C)c1	inactive: 85%
CCOc1ccc(-n2c(SCC(=O)Nc3ccc4c(c3)OCCO4)nc3c([nH]c4ccccc43)c2=O)cc1	inactive: 121%
Clc1ccccc1-c1nnc(-c2ccccc2CNc2ccc(Br)cc2)o1	inactive: 91%
CCc1nc2ccc(C(=O)NCc3ccc(SC)cc3)cc2nc1CC	inactive: 68%
OCCN1CCN(C(c2ccc(Cl)cc2Cl)c2sc3nc(-c4ccco4)nn3c2O)CC1 (stereo not given)	inactive: 77%
CC(=O)Nc1nc(C(=O)O)cs1	inactive: 116%
CCOc1ccccc1NC(=O)CCc1c(C)nc2c(c(C)nn2-c2ccccc2)c1C	inactive: 73%
C#CCSc1nc(-c2ccccc2)c2cc(Cl)ccc2n1	inactive: 77%
COc1ccc(-c2cc(OC(=O)c3ccccc3)c3c(C)oc(C)c3c(=O)c2)cc1OC	inactive: 83%
CC(C)c1ccc2c(c1)NC(c1ccncc1)=NC(c1cccs1)=N2	inactive: 111%
COc1cccc(NC(CNS(=O)(=O)c2ccc(Cl)cc2)c2ccccc2)c1 (stereo not given)	inactive: 89%
CCc1cccc(NC(=O)C(NS(=O)(=O)c2ccc3nc(C)sc3c2)C(C)C)c1 (stereo not given)	inactive: 88%
O=C(CCS(=O)(=O)c1cc(Br)cc2c1N(C(=O)C1CC1)CC2)Nc1ccc(F)cc1	inactive: 130%

Compound	survival
Cc1ccc(CNC(=O)c2sc3nc(-c4ccccc4)cn3c2C)cc1	inactive: 124%
Cc1ccc(Cl)cc1N1CCN(C(=O)c2ccc3c(c2)N(Cc2ccccc2F)C(=O)c2ccccc2S3=O)CC1 (stereo not given)	inactive: 87%
CC(C)Cn1c(=O)c2ccccc2n2c(CCC(=O)NCc3ccc(Cl)cc3)nnc12	inactive: 92%
CCN(CCCNC(=O)c1cc2cc3ccc(OC)cc3nc2s1)c1cccc(C)c1	inactive: 81%
CCCN1C(=O)c2[nH]nc(-c3cccc(OC)c3)c2C1c1ccccn1 (stereo not given)	inactive: 93%
O=C(NCc1ccc(F)cc1)c1ccc(Cn2c(SCc3ccc(F)cc3)nc3cccnc32)cc1	inactive: 78%
Cc1cc(C)cc(-n2c(C)nc3cc(C(=O)NCc4ccc(F)cc4)ccc32)c1	inactive: 138%
Cn1nnc2c(NCc3ccccc3)ncnc21	active: 0%
CCC(C)NC(=O)c1ccc2c(c1)N(Cc1ccccc1F)C(=O)c1ccccc1S2=O (stereo not given)	inactive: 86%
Cc1cc(C)cc(NC(=O)c2cnn(-c3ccc(C)c(C)c3)c2C2CCNCC2)c1	inactive: 73%
O=C(CCC(=O)N1CCSc2ccccc21)NCc1ccccc1Cl	inactive: 79%
CCOc1ccc(CCNC(=O)c2cn(-c3cccc(OC)c3)c(=O)c3ccccc23)cc1	inactive: 87%
COc1cc(S(=O)(=O)N2CCCCC2C)c(OC)cc1Cl (stereo not given)	inactive: 105%
CCCCn1c(=N)c(C(=O)NC2CCCCC2)cc2c(=O)n3cccc(C)c3nc21	inactive: 75%
Cc1ccc(F)c(NC(=O)C2CCCCC2C(=O)O)c1 (stereo not given)	inactive: 108%
Cn1c(=O)oc2cc(S(=O)(=O)NCCC(=O)NCc3ccc(F)cc3)ccc21	inactive: 78%
CCOC(=O)c1c(C)oc2nc(C)nc(NCCCN3CCN(c4ccc(F)cc4)CC3)c12	inactive: 72%
CC(CNS(=O)(=O)c1ccc2c(c1)CC(=O)N2C)c1ccccc1 (stereo not given)	inactive: 143%
Cc1ccc(C(C)C)c(OCCCn2c(=O)oc3ccccc32)c1	active: -2%
COc1ccc(C(=O)NCCn2cc(SCc3cc(C)ccc3C)c3ccccc32)cc1	inactive: 62%
COc1ccccc1NC(=O)c1ccc2oc(=O)c(S(=O)(=O)c3ccccc3)cc2c1	inactive: 74%
